Data on 110 sequences can be found in the supplement of paper PMC3334620.

Over roughly 33,000 sequences, “E-score (-0.5 to 0.5)” has its median near -0.054; the highest 2% begin near 0.39. The list shows a part of the results.

The target of the test is Ylr278c (UniProt Q05854). Nature of the test: PBM E-score (8-mer binding enrichment) (E-score (-0.5 to 0.5)); higher = stronger / more preferred TF binding; most listed sequences are background and not binding sites. The note with it: protein concentration: 200 nM; construct: GST-DNA-binding domain. In short, it runs like this:
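Bound GST-tagged yeast transcription factors, applied at about 100-200 nM to double-stranded universal all-10-mer Agilent arrays, were detected with fluorescent anti-GST. Scans were normalised with masliner. A modified Wilcoxon-Mann-Whitney statistic, the E-score, was assigned to each ungapped eight-base word pooled with its reverse complement by the Universal PBM Analysis Suite.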
Consider CATTTCCA, for which the “PBM E-score” value was -0.0597. Turning to ATACTGCC, the “PBM E-score” value was found to be 0.013. Next, CAGTGTCC: 0.0722; CCACCTTA: -0.0276; GTCAGGAA: -0.0709. As for ATAGCTTG, the “PBM E-score” value was -0.188. Next, ACGCTGAT: -0.199; AACCGGCT: 0.233. As for GTAAAATA, the “PBM E-score” value is -0.0849. Turning to CTCGCCCC, the “PBM E-score” value amounted to 0.0377. TAGTAAGA: the “PBM E-score” value is -0.186. Next, ATAATAAG: -0.0794. Regarding CGGCGGTC, the “PBM E-score” value is 0.312. As for CCTCACTC, the figure is 0.0281; as for AGGCTAAC, -0.182; as for GTGTTGTA, -0.123. With CAACACCC, the “PBM E-score” value is -0.111. Take AACAAGTC: the “PBM E-score” value is -0.0535.

For the sequence CTCGGGGA, the “PBM E-score” value turned out to be 0.318. As for AAGACATA, the figure is -0.262. Next, CTCCAGAA: -0.102; ACATCTAT: 0.0398; GGACATAA: 0.132. Next, AGCACCCC: -0.113. With CGCGGGAA, the “PBM E-score” value is 0.337. Next, GTGAGTTA: -0.175; AGTGATGA: -0.149. Next, CTCGCAAG: -0.211; AGTATTAA: 0.00032; CAACTGAA: -0.152. Next, ATGGGGCA: -0.114. On to GGAGATCA, for which the “PBM E-score” value is 0.242. Next, ACCCAGGC: 0.00179; CCGCCGAA: 0.38. Next, CCTAAGGA: -0.0801; AGGCGACT: -0.0828. CCCTATGC: the “PBM E-score” value is -0.173. Next, AGAAAGCG: 0.0364; ACTTCGGA: 0.368; ACTCCCCA: 0.034. On to CCGCCCCA, for which the “PBM E-score” value turned out to be 0.204. As for AGTGTCTA, the figure is -0.183. Next, CGTAATCA: -0.138; CTTACTCC: 0.247.

With ATGGGTAA, the “PBM E-score” value was -0.0367. As for GTGGCAAC, the figure is -0.0372; as for CAACACCG, 0.212. As for CTATAGTC, the figure is -0.125. Consider ACTTACAA, for which the “PBM E-score” value was -0.0662.

Consider AAGAGTAA, for which the “PBM E-score” value worked out at 0.0123. As to ATTCCTCG, the “PBM E-score” value was determined as 0.0292. Take AACCGTAT: the “PBM E-score” value was -0.121.

Take CAAACGGC: the “PBM E-score” value is 0.0467. As for ATTGAAGG, the figure is 0.0155; as for CCTGTGAC, -0.265. In the case of AAGCTGAC, the “PBM E-score” value was -0.0994. Next, CCGGCATC: 0.34; GAGATTGC: 0.0682. As for AGCGTAGC, the “PBM E-score” value is -0.0983.

Consider GAGTATTA, for which the “PBM E-score” value was found to be 0.0363. Next, AATAGCGG: 0.145; CCTTCGTC: -0.194; CTCCGCCC: 0.457.

With GCAGAGTA, the “PBM E-score” value was -0.101.

For ACCGACCC, the “PBM E-score” value was determined as 0.161. Consider ACCGCAGT, for which the “PBM E-score” value was 0.0621. As for GAGCCCGA, the figure is 0.168.

Take AAAAGGAC: the “PBM E-score” value is -0.118.

With AACCACTG, the “PBM E-score” value was -0.136. Next, AAATGCCG: 0.423; CCGAACCA: 0.255; TCGGAGCA: 0.455. As for AGCCCGCA, the figure is 0.201; as for ACCTGAGA, -0.179.

In the case of CCCTCTAC, the “PBM E-score” value was -0.37. Next, AATGATTC: -0.0438; GCGATTCC: 0.237; ACATACCT: -0.192.

Consider GTACTGAC, for which the “PBM E-score” value is -0.0523. Next, CTTACAAG: -0.267; AAATTTGA: -0.0307. For the sequence CCCCGTTA, the “PBM E-score” value turned out to be 0.0524. As for AACGCTCT, the figure is -0.122; as for AGGAGGTC, -0.0814.

Turning to CAGCCCAG, the “PBM E-score” value is -0.0779. As to CGATCTTC, the “PBM E-score” value turned out to be 0.154. Next, AACTACGG: 0.183; CAGAGTCA: -0.305. As for TATTCCCA, the figure is 0.138; as for AGATGGTC, -0.0931. As for CGGATCCG, the figure is 0.438; as for GGCCCTAA, -0.0963. On to TATAGGGA, for which the “PBM E-score” value was -0.0545. As to CGGGCAGC, the “PBM E-score” value was determined as 0.261. Next, CACCCGCG: 0.224; AGCCGTTA: 0.127. As for GCGGGTCA, the figure is 0.118; as for CTAGTCAG, -0.359. As for GCCGCGGA, the figure is 0.409; as for GAGACTAA, 0.112; as for AAGTCTCA, -0.295. For CTAATGAA, the “PBM E-score” value is 0.00115. With AAAGATAG, the “PBM E-score” value was -0.182. As to AACGCATC, the “PBM E-score” value was -0.165. As for AGTTAAGC, the figure is -0.0853; as for ACTAACAC, 0.01. Next, CGCGAAAA: 0.167; CCTAATCG: -0.0065.

Turning to CTTTTGAA, the “PBM E-score” value was -0.00134.

Consider CTTGGAGA, for which the “PBM E-score” value is -0.0088.
